Counter-ions that a name gives are not always drawn. Screen size: about 5,800 compounds; about 620 (11%) showed activity.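 Rule for the calls: active = score above a cut-off or among the top three wells of a plate; in these data no inactive exceeds 0.85.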 The list shows a part of the results, in another mix than the full data.
Tested on: primary human hepatic stellate cells (donor 1)
Test: scaled lipid accumulation score (0 = DMSO-like, 1 = nortriptyline-like); higher = stronger HSC inactivation (lipid re-accumulation), active = hit call of the paper
Conditions: 48 h
[1] = library stock concentration: 1 mM
[2] = library stock concentration: 10 mM
[3] = library stock concentration: 3.33 mM

CCCCC/C=C\C/C=C\C/C=C\CCCCC(=O)OC [.gamma.-Linolenic Acid methyl ester]
scaled lipid accumulation score [1]: inactive: ≤ 0

O=C1c2c(O)cc(O)cc2OC(c2ccc(O)c(O)c2)C1O (stereo not given) [(?)-Taxifolin]
scaled lipid accumulation score [2]: inactive: ≤ 0

O=C1c2c(O)cc(O)cc2OC(c2ccc(O)c(O)c2)C1O (stereo not given) [Taxifolin (Dihydroquercetin)]
scaled lipid accumulation score [3]: inactive: 0.018 | scaled lipid accumulation score [2]: inactive: ≤ 0

O=C1c2c(O)cc(O)cc2O[C@H](c2ccc(O)c(O)c2)[C@H]1O
scaled lipid accumulation score [2]: inactive: ≤ 0

COc1ccc(Nc2nccc(NCCO)n2)cc1 [Cardiogenol C (hydrochloride)]
scaled lipid accumulation score [1]: inactive: ≤ 0

COc1ccc(Nc2nccc(NCCO)n2)cc1 [Cardiogenol C hydrochloride]
scaled lipid accumulation score [2]: inactive: ≤ 0

CN(C)CCCN1c2ccccc2Sc2ccccc21.Cl [Promazine hydrochloride]
scaled lipid accumulation score [2]: active: 0.923

O=C(O)c1cc(O)c2c(c1)[C@H]([C@H]1c3cc(C(=O)O)cc(O)c3C(=O)c3c(O[C@@H]4O[C@H](CO)[C@@H](O)[C@H](O)[C@H]4O)cccc31)c1cccc(O[C@@H]3O[C@H](CO)[C@@H](O)[C@H](O)[C@H]3O)c1C2=O [Sennoside a]
scaled lipid accumulation score (library stock concentration: 2.3 mM): inactive: ≤ 0 | scaled lipid accumulation score [2]: inactive: ≤ -0.027

CC(=O)Oc1cc(C(C)C)c(OCCN(C)C)cc1C [Moxisylyte hydrochloride]
scaled lipid accumulation score [2]: inactive: ≤ -0.055

CC(=O)Oc1cc(C(C)C)c(OCCN(C)C)cc1C [Moxisylyte hydrochoride]
scaled lipid accumulation score: inactive: ≤ 0

Br.NC(=O)C(c1ccccc1)(c1ccccc1)[C@@H]1CCN(CCc2ccc3c(c2)CCO3)C1 [Darifenacin HBr]
scaled lipid accumulation score [2]: active: 1.03

Cc1ccc(C(=O)Nc2ccc(CN3CCN(C)CC3)c(C(F)(F)F)c2)cc1C#Cc1cnc2cccnn12
scaled lipid accumulation score [3]: active: 1.06

CC(c1cc2ccccc2s1)N(O)C(N)=O (stereo not given)
scaled lipid accumulation score [2]: inactive: ≤ 0

CC(c1cc2ccccc2s1)N(O)C(N)=O (stereo not given) [Zileuton]
scaled lipid accumulation score [3]: inactive: ≤ 0 | scaled lipid accumulation score [2]: inactive: ≤ 0

Nc1ccc(-c2cccc3c(=O)cc(N4CCOCC4)oc23)cc1
scaled lipid accumulation score [2]: inactive: ≤ -0.001

CC[N+](C)(CC)CC(=O)Nc1c(C)cccc1C [N-Methyllidocaine iodide]
scaled lipid accumulation score [2]: inactive: ≤ -0.006

CC1=C(C(=O)OC2CCCCC2)C(c2ccc([N+](=O)[O-])cc2)C2=C(CC(C)(C)CC2=O)N1 (stereo not given)
scaled lipid accumulation score [3]: inactive: 0.763

C[C@@H]1C(=O)O[C@H]2C[C@@]34[C@H]5C[C@@H](C(C)(C)C)[C@]36[C@@H](OC(=O)[C@@H]6O)O[C@@]4(C(=O)O5)[C@]21O [Ginkgolide a]
scaled lipid accumulation score (library stock concentration: 4.9 mM): inactive: ≤ -0.006 | scaled lipid accumulation score [2]: inactive: 0.025

C[C@@H]1C(=O)O[C@H]2C[C@@]34[C@H]5C[C@@H](C(C)(C)C)[C@]36[C@@H](OC(=O)[C@@H]6O)O[C@@]4(C(=O)O5)[C@]21O [Ginkgolide A]
scaled lipid accumulation score: inactive: 0.016 | scaled lipid accumulation score [3]: inactive: ≤ 0 | scaled lipid accumulation score [2]: inactive: 0.034

— the supplement of paper PMC9135407
